Some of the results follow.

The test has as its system PfAP2-HC AP2 domain (GST-tagged). As to the kind of experiment: gcPBM binding intensity (ln(normalized median fluorescence intensity)); higher = stronger DNA binding. Put shortly:
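Alexa488 anti-GST antibody, scanned at 488 nm, detected GST-tagged P. falciparum DNA-binding domains that had been expressed in E. coli and incubated for 1 h on an Agilent 4 × 180k array. The array carried primer-extended double-stranded 36-bp intergenic genomic probes and negative controls. Binding intensity is the highest Masliner-normalised natural-log median intensity across replicate spots of either orientation of each probe.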
As to “AAATATATTTTTAATAGTACAATATGAAAATTTCAT [XGTACX_site2562]”, the “gcPBM binding intensity (ln)” value was found to be 9.47.
Then “AAAAAAAAGGAAATAACACACATGTATATATTTATA [CACACA_site1606]”, with 9.84.
Then “CACCATGTTAACAATACATGCATCACTATATAAATG [TGCATGCA_site36]”, with 9.72.
Then “GTACACATATATATATATATATATATATATATATAT [CACACA_negctrl_site800]”, with 9.87; and “TTTTTTTTTTTTTTTTGTACTCATACATACTATTAT [XGTACX_site989]”, with 9.39.
For the sequence “TTTTTATTATTTTAAAGTACTCTTTAGTAATTCCCT [XGTACX_site5863]”, the “gcPBM binding intensity (ln)” value was 9.51.
As for “CACAGATAAATTAACACACACACACCGATATATATA [CACACA_site6049]”, the figure is 10.5; as for “AAAAAACATACATACACACACATAAATATTTATATT [CACACA_site7300]”, 10.8.
Then “TTTTATTAATATTGCATGCACACTATATAATAATTG [CACACA_site1049]”, with 9.93; and “CGGAAAAATTAAAGCACACAAAAAAAAATAAAAAAA [CACACA_site1133]”, with 10.1; and “AATATTTCTTTAATTTGTACATATAAGGGAAAATAA [XGTACX_site6221]”, with 9.48.
As to “ATTTCTTCTTTTTTTGTGAAACTGGAATATATATAT [XGTACX_negctrl_site527]”, the “gcPBM binding intensity (ln)” value was determined as 9.47.
“CTTAGGTGTTCATAGAGTACAAATAAAAAAATAAGA [XGTACX_site2294]”: the “gcPBM binding intensity (ln)” value stood at 9.67.
On to “ATATATATTTTAATAACACACATATATTATATTATA [CACACA_site4387]”, for which the “gcPBM binding intensity (ln)” value was 9.6.
Then “TCATTCTAAATATAAACACACATAAATAAATACATT [CACACA_site5788]”, with 9.83; and “GGTGGTGGTGGGTGGGTGCTTCTATTATTATATTAT [GTGCAC_site9391]”, with 10.4.
Then GATGTTTCTATTTTAGTGCATTTTAAATAAATAAAT, with 9.49; and “ACGTTACATACATATACACACACATATATATATATA [CACACA_site8203]”, with 10.3; and “TATATATATTATTATGCATGTAATAAAACAAATAAT [TGCATGCA_site625]”, with 9.66.
As for “TATATTAAACCATGTAGTACCTTGAATAAATATTAT [XGTACX_site8254]”, the figure is 9.51.
As for “ATTATACCACCCGATATACACACTTGTAGACATCTT [CACACA_site7944]”, the “gcPBM binding intensity (ln)” value was 9.83.
Then “AAAAAAAAATACATATGTACTTATGTATAATGTTGT [XGTACX_site8104]”, with 9.81; and “TTTTTTTAATTAGTTTGTACATATTGTTATAATATA [XGTACX_site6294]”, with 9.66.
In the case of “CATGTTATGATTCCATGTACTTATAGCATTAAAAAA [XGTACX_site8939]”, the “gcPBM binding intensity (ln)” value stood at 9.28.
As for “AAGTTACAAAATCAAAAGGAAAAAATATAAAATAAT [CACACA_negctrl_site561]”, the figure is 9.69; as for “CAAGAAAATTGACACACACACATATTTATATTTATA [CACACA_site7766]”, 10.6.
On to “AACATATATATATATACATGCATATGAACAACGAAT [TGCATGCA_site93]”, for which the “gcPBM binding intensity (ln)” value came to 10.2.
In the case of “TATAAAAATGTTTACACACACACATAAATATATTTT [CACACA_site2512]”, the “gcPBM binding intensity (ln)” value was determined as 10.2.
Take “TTTTTTTTTTTTCTGAGTACGAAAAATAGAGATAGA [XGTACX_site3825]”: the “gcPBM binding intensity (ln)” value was determined as 9.14.
For “TGTATAAATATAATCACACATATATATATATATATA [CACACA_site4365]”, the “gcPBM binding intensity (ln)” value is 9.55.
As for “ATCACATATATATATAATATATATATGTATATATTT [GTGCAC_negctrl_site249]”, the figure is 9.6; as for “ATATATATATATATATGTACATATATTTTTATTTAT [XGTACX_site3508]”, 9.7.
For “AAAAAAAATATATATGCACACACAAAAAAACAAATT [CACACA_site8349]”, the “gcPBM binding intensity (ln)” value was found to be 10.2.
As for “CAACTAATATTAAAACGTACATAAATATTTAACAGA [XGTACX_site625]”, the figure is 9.78; as for “TATACCTTTTTATTCACACATATATGTCATATGTCA [CACACA_site5423]”, 10.2.
With “TTAATTACATGTAATTGTACTTAATTATAAGACATT [XGTACX_site464]”, the “gcPBM binding intensity (ln)” value came to 9.52.
As for “TATTACTTATAAATTACACACAAATGATTGAACATT [CACACA_site2259]”, the figure is 9.69.
On to “TTAAAATAAAGAAAATGTACATAAATAAAAATAAAG [XGTACX_site2280]”, for which the “gcPBM binding intensity (ln)” value amounted to 9.83.
Then “TTTTACCTAAATATCACACATATTTAAATATATATA [CACACA_site5597]”, with 9.57; and “TTGTAATAAAGAATTAAAAAAAAATATATACAGGTA [GTGCAC_negctrl_site150]”, with 9.6; and “AATATATTTTTTGGTTGTACAGAGATCTTTGTAGAA [XGTACX_site1707]”, with 9.51.
For “TATAATAATTATACATGTACACATTATTTGGATAAA [XGTACX_site5552]”, the “gcPBM binding intensity (ln)” value was found to be 9.6.
Regarding “TTTTTATATTTAATGTGTCCTCACTTAAAAGGATGA [XGTACX_site2744]”, the “gcPBM binding intensity (ln)” value turned out to be 9.25.
Then “ATTCTCCAAGTTTGATGTACACATATGACGACGGCG [XGTACX_site4912]”, with 9.54; and AAAAATTATAGAAAAGTGCAATACATGTTACACCAT, with 9.68; and “TACAATAAGGATAAGTGTACATATGTGCATACATAT [XGTACX_site7188]”, with 9.77.
Take “CATATAGCATAATCATGTACACATACAACAAATAGG [XGTACX_site1589]”: the “gcPBM binding intensity (ln)” value stood at 10.
Consider “AAATTGGGGCTTGTTACACACTTAGTGGGAGTTCTA [CACACA_site4485]”, for which the “gcPBM binding intensity (ln)” value came out at 9.71.
As for “AAACTTGTAAGAAACACACACACACCCATATATATA [CACACA_site797]”, the figure is 10.5; as for “TTACGATTATACAAAAGTACATGTATTACACAATAT [XGTACX_site5138]”, 9.68; as for “TATACCAGTTTTAAAAGTACTTGTGCATAAAAAATA [XGTACX_site4794]”, 9.61.
Then “TATATATATATATATACACACTATATAATTCAAACA [CACACA_site4712]”, with 9.69.
As for “ATGAATAAATTAAAAATGCACACTTTGATGGGTACA [CACACA_site2157]”, the figure is 9.72; as for “AAAATAAAATAAAAGTGTACGTTTTAAGAACATTGA [XGTACX_site2382]”, 9.72; as for “AACATGCTCAACTTTTTTTTTTTTTTTTTTTTTTTT [CACACA_negctrl_site1617]”, 9.41.
For the sequence “GTAAAAATAAAAACTGGTACACAAGTTGTTATAAAA [XGTACX_site502]”, the “gcPBM binding intensity (ln)” value stood at 9.76.
As for “CTTTTTTGTTAAAGTGTGCGCAATAGTTATAGACTT [GTGCAC_site9670]”, the figure is 9.7.

Values taken from the supplement of paper PMC11417369.
